Test results: the RNAGym collection of RNA variant scans (doi:10.7554/elife.90254)
Read counts are not given, so values of variants with three or more changes are uncertain.

B1: LINE1-full (parent)
chain: UACGUAGGUGGUUUUCCCCUGAUAGUGCUAAGGGGGCCUGGAAGUUUGGACUGGGCAGAGCUCAACACAGCGUGGCAAAGUGGCUGUGGCUAGACUGCCUCUCUGGAUUCCUCGUCACUCAGCAGGGCAUCUCUGAGAGAAAUGCC

Variants of: B1
Test: self-cleavage, relative activity (ratio to wild type); higher = more cleavage; in vitro, sequencing; the parent is a self-cleaving ribozyme

Variant	self-cleavage
UACGUAGGUGGUUUUCCCCUGUUAGUGCUAAGGGGGCCUGGGAGUUUGGACUGGGCAGAGCUCAACACAGCGUGGCUAAGUGGCUGUGGCUAGACUGCCUCUCUGGAUUCCUCGUCACUCAGCAGGGCAUCUCUGAGAGAUAUGCC [A22U A42G A77U A141U]	1.06
UACGUAGGUGGCUUUCCCCUGAUAGUGCUAAGGGGGCCUGGAAGUUUGGACUGGGCAGAGCUCAACACAGCGUGGCAAAGUGGCUGUGACUAGACUGCCCCUCUGGAUUCCUCGCCACUCAGCAGGGCAUCUCUGAGAGAAAUGCC [U12C G89A U100C U115C]	0.08
UACGUAGGUGGUUUUCCCCUGAUAGUGCUAAGGGGGCCUGGAAGUUUGGACUGGGCAGAGCUCAACACAGCGAGGCAAAGUGGCUGUGGCUAGACUGCCUCUCUGGAUUCCUCGUCACUCAGCAGGGCGUCCCUGAGAGAAAUGCC [U73A A129G U132C]	1.3
UACGUAGGUGGUUUUCCCCUGAUAGUGCUAAGGGGGCCUGGAAGUUUGGACUGGGCAGAGCUCAACUCUGCGUGGCAAAGUGGCUGUGGCUAGACUGCCUCUCAGGAUUCCUCGUCACUCAGCAGGGCACCUCUGAGAGAAAUGCC [A67U A69U U104A U130C]	0.02
UACGUAGGUGGUUUUCCCCUGAUAGUGCUAAGGGGGCCUGGAAGUUCGGACUGGGCAGAGCCCAACACAGCGUGGCAAAGUGGCUGUGGCUAGACUGCCUCUCUGGAUUCCUCGUCACUCAGCAGGGCAUCCCUGAGAGAAGUGCC [U47C U62C U132C A142G]	0.13
UACGCAGGUGGUUUUCCCCUGAUAGUGCUAAGGGGGCCUGGAAGUUUGGACUGGGCAGAGCUCAACACAGCGUGACAAAGAGGCUGUGGCUAGACUGCCUCUCUGGAUUCCUCGUCACUCAGCAGGGCAUCUCUGAAAGAAAUGCC [U5C G75A U81A G137A]	0.68
UACGUAGGUGGCUUUCCCCAGAUAGUGCUAAGGGGGCCUGGAAGUUUGGACUGGGCAGAGCUCAACACAGCGUGGCAAAGUGGCUGUGGCUAGACUGCCUCUCCGGAUUCCUCGUCACUCAGCAGGGCAUCUCUGAGAGAAAUGCC [U12C U20A U104C]	1.48
UACGUAGGUGGUUCUCCCCUGAUAGUGCUAAGGGGGCCAGGAAGUUUGGACUGGGCAGAGCUCAACACAGCGUGGCAAAGUGGCUGUGGCUAGACUGCCUCUCUGGAUUCCUCGUCACUCAGCAGGGCAUCUCCGAGAGAAAUGCC [U14C U39A U134C]	1.54
UACGUAGGUGGCUUUCCCCUGAUUGUGCUAAGGGGGCCUGGAAGUUUGGACUGGGCAGAGCUUAACACAGCGUGGCAAAGUGGCUGUGGCUAGACUGCCUCUCUGGACUCCUCGUCACUCAGCAGGGCAUCUCUGAGAGAAAUGCC [U12C A24U C63U U108C]	0.56
UACGUAGGUGGUUUUCCCCUGAUAGUGCUAAGGGGGCCUGGAAGUUUGGACUGGGCAGAGCUCAACACAGCGCGGCAGAGUGGCUGUGGCUAGACCGCCUCUCUGGAUUCCUCGUCACUCAGCAGGGCAUCUCUGGGAGAAAUGCC [U73C A78G U96C A136G]	0
UACGUAGGUGGUUUUCCCCUGAUAGUGCUAAGGGGGCCUGGAAGUUUGGACUGGGCAGAGCUCAACACAGCGUGGCAAAGUGGCUGUGGCCAGACUGCCCCUCUGGAUUCCUCGUCACUCAGCAGGGCAUCUCUGAGAGAGAUGCC [U91C U100C A141G]	1.26
UACGUAGGUGGUUUUCCCCUGAUAGUGCUAAGGGGGCCUGGAAGUUUGGACUGGGCAGAGCUCAACACAGCGUGGCAAGGUGGCUGCGGCUAGACUGCCUCUCUGGAUUCCUCGUCACUCAGCAGGGCAUCUCUGAGAGAAACGCC [A79G U87C U143C]	0.13
UACGUUGGUGGUUUUCCCCUGAUAGCGCUAAGGGGGCCUGGAAGUUUGGACUGGGCAGAGCUCAACACAGCGUGGCAAAGUGGCUGUGGCAAGUCUGCCUCUCUGGAUUCCUCGUCACUCAGCAGGGCAUCUCUGAGAGAAAUGCC [A6U U26C U91A A94U]	0.19
UACGUUGGUGGUUUUCCCCUGAUAAUGCUAAGGGGGCCUGGAAGUUUGGACUGGGCAGAGCUCAACACAGCGUGGCAAAGUGGCUGUGGCUAGACUGCCUCUCUGGAUUCCUCGUCUCUCAGCAGGGCAUCUCUGGGAGAAAUGCC [A6U G25A A117U A136G]	1.5
UACGCAGGUGGUUUUCCCCUGAUAGUGCUAAGGGGGCCUGGAAGUUUGGACUGGGCAGAGCUCAACACAGUGUGGCAAAGUGGCUGUGGCUAGACUGCCUCUCUGGAUUCCCCGUCACUCAGCAGGGCAUCUCUGAGAGAAAUGCC [U5C C71U U112C]	0.55
UACGUAGGUGGUUUUCCCCUGAUAGUGCUAAGGGUGCCUGGAAGUUUGGACUGGGCAGAGCUCAACACAGCGUGGCAAAGUGGCUGUGGCUAGACUGCCUCUUUGGAUUCCUCGUCACUCAGCAGGGCAUCUCUGGGAGAAAUGCC [G35U C103U A136G]	1.24
UACGUAGGUGGUUUUCCCCUGAUAGUGCUAAGGGGGCCUGGAAGUUUGGACUGGGCAGAGCUCAACACAGCGUGGCAAAGUGGCUGUGGCUUGACCGCCUCUCUGGACUCCUCGUCACUCAGCGGGGCAUCUCUGAGAGAAAAGCC [A92U U96C U108C A124G U143A]	0
UACGUAGGUGGUUUUCCCCUGAUAGUGCUAAGGGGGCCUGGAAGUUUGGACUGGACAGAGCUCAACACAGCGUGGCAAAGUGGCUGUGGCCUGACUGCCUCUCUGGAUUCCUCGUCACUCAGCAGUGCAUCUCUGAGGGAAAUGCC [G55A U91C A92U G126U A138G]	0.1
CACGUAAGUGGUUUUCCCCUGAUAGGGCUAAGGGGGCCUGGAAGUUUGGACUGGGCAGAGCUCAACACAGCGUGGCAAAGUGGCUGUGGCCUGACUGCCUCUCUGGAUUCCUCGUCUCUCAGCAGGGCAUCUCUGAGAGAAAUGCC [U1C G7A U26G U91C A92U A117U]	0.37
UACGUAGGUGGUUCUCCCCUGAUAGUGCUAAGGUGGCCUGGAAGUUUGGACUGGGCAGAGCUCAACACAGCGUGGCAAAGUGGCUGUGGCUAGACUGCCUCUCUGGAUUCCUCGUCACUCAGCUGGGCAUCUCUGAGAGAAAUGCC [U14C G34U A124U]	1.35
